Assay results published in patent publication US20220073613A1, “ACTIVATABLE MASKED ANTI-CTLA4 BINDING PROTEINS” (Xilio Development, Inc., priority 2018, published 2022).

Assays:
[1] = In vivo cleavage of masked antibodies in plasma of MC38 tumor-bearing mice, Western blot; parameters: species or system C57BL/6J mice; conditions: MC38-bearing mice, 200 μg i.p., days 2, 4, 7
[2] = In vivo cleavage detection in tumor, liver, kidney, spleen and plasma (western blot) and CTLA4 binding of recovered antibody; parameters: species or system B-hCTLA-4 transgenic mice
Procedure: B-hCTLA-4 transgenic female mice were purchased from Biocytogen and were 8-10 weeks old at the start of study. MC38 colorectal tumor cells (5×10^5 cells per mouse), MB49 bladder cancer cells (1×10^6 cells per mouse) or MCA205 fibrosarcoma cells (1×10^6 cells per mouse) were subcutaneously into the right flank of each mouse. Upon reaching ˜250-500 mm^3 sized tumors (day 0), the mice received a single 10 mg/kg intraperitoneal dose of indicated antibodies. Tumor, liver, kidney, spleen and plasma harvested on day 4 for analysis of cleavage by western blot.
For plasma samples, a direct western blot approach is utilized by separating equal volumes of denatured plasma (1-2 μL input) on a gradient criterion precast gel (BioRad). Separated proteins were then transferred into a nitrocellulose membrane using Turbo Transblot system (BioRad). Membranes were than developed using standard methods for anti-human kappa light chain reactivity with an HRP conjugated antibody (ab202549). Cleavage is assessed visually as the cleaved light chain migrates lower than the un-cleaved light chain with a mass difference of 2 kD.
Protein lysates from tumor, liver, spleen and kidney were generated using Tissue Lyser II (Qiagen) bead homogenizer in RIPA buffer (Pierce, 87788) supplemented with protease and phosphatase inhibitors (Thermo Fisher, 78442). Protein concentrations were determined by BCA assay and 3 mgs of tissue lysate was subjected to immunoprecipitation with biotin conjugated anti-human kappa light chain antibody (LSBio, LS-C351451-500) and streptavidin magnetic beads (Pierce, 88816). Proteins were eluted in 50 μL 10 mM Glycine (pH 2) and neutralized with 1M Tris (pH 8) prior to western blot detection of human kappa light chain as described above.
Studies were also carried out where IgG levels of each antibody administered to MB49-bearing mice was quantified by an ELISA assay and then each sample was assayed in a 3-fold dilution series starting at 1 μg/mL for spleen or 0.04 μg/mL for kidney and liver tissue, on a CTLA4-coated MSD plate to assess CTLA4 binding. These studies included a non-masked parental antibody (Antibody 2-6), masked and cleavable antibodies (e.g., Antibody 2-14 and Antibody 2-16), and a masked but non-cleavable antibody (Antibody 2-10). FIG. 24D is an SDS-PAGE analysis showing the percentage (%) of product cleaved for Antibody 2-14. […] FIG. 24F depicts a heat map of the in vitro cleavage of cleavable peptide substrates by a panel of exemplary proteases.

[3] = system: murine tumor, tissue, and plasma conditioned media; experiment: Ex vivo cleavage in murine tumor, tissue, and plasma, CTLA4 ELISA; type: in vitro ADME
Procedure: In another study, ex vivo cleavage in murine tumor, tissue, and plasma was assessed using a CTLA4 ELISA assay. This included the following murine models: C57/B16 (N=9), MC38 in wild type mice (N=9), MC38 in hCTLA4 mice (N=5), MB49 in wild type mice (N=6), MCA205 in wild type mice (N=4), and B16 in wild type mice (N=4). Cleavage in tumors, spleen, liver, kidney, and plasma was assessed. Plasma samples were pooled. Frequency of cleavage and the percentage of the molecule cleaved (median) were calculated.

[4] = system: Ki67+ cells in CD4+ cells; experiment: Pharmacodynamic effects in cynomolgus monkeys; conditions: cynomolgus monkey, in vivo
Procedure, shortened: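 Cynomolgus monkeys received antibody or isotype control; pharmacodynamic readout was the percentage of Ki67+ cells among CD4+ cells.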

B1: Antibody 2-16: masked Antibody 2-6: mask CPFPALELC, cleavable peptide DSGGFMLT; SEQ ID NO: 422 and 421 (protein)
light: ACPFPALELCSSGGSGPDSGGFMLTSGGEIVLTQSPDFQSVTPKEKVTITCSANSALSYMYWYQQKPDQSPKLWVHGTSNLASGVPSRFSGSGSGTDFTLTINSLEAEDAATYYCHHWSNTQWTFGGGTKVEIKRTVAAPSVFIFPPSDEQLKSGTASVVCLLNNFYPREAKVQWKVDNALQSGNSQESVTEQDSKDSTYSLSSTLTLSKADYEKHKVYACEVTHQGLSSPVTKSFNRGEC
heavy: QVQLVQSGAEVKKPGSSVKVSCKASGYTFTNYFMNWVRQAPGQGLEWMGRVDPEQGRADYAEKFKKRVTITADKSTSTAYMELSSLRSEDTAVYYCARRAMDNYGFAYWGQGTLVTVSS[human IgG1 constant region with changes left out here]
In the case of B1, the “activation in vivo (cleavage in plasma)” value [1] is reported as “not detected”, the “binding to CTLA4 of antibody isolated from plasma, kidney, liver, or spleen” value ([2]; MB49-bearing B-hCTLA4 transgenic mice, CTLA4-coated MSD plate) is reported as “stronger binding compared to Antibody 2-10 in kidney, liver, and spleen” and the “cleavage products in liver tissue” value ([2]; MB49 bladder cancer, single 10 mg/kg i.p., day 4) is reported as “not”. For the same molecule, the “cleavage products in liver tissue” value ([2]; MC38 colorectal cancer, single 10 mg/kg i.p., day 4) was “not”, the “cleavage products in tumors and in liver tissue” value ([2]; MCA205 fibrosarcoma, single 10 mg/kg i.p., day 4) was “not” and the “Percentage (%) cleaved molecule” value ([3]; B16-wt, Kidney (n = 4)) was 2%. The “Percentage (%) cleaved molecule” value ([3]; B16-wt, Liver (n = 4)) was 1%, the “Percentage (%) cleaved molecule” value ([3]; B16-wt, Plasma (n = 1)) was 0% and the “Percentage (%) cleaved molecule” value ([3]; B16-wt, Spleen (n = 4)) was 1%. The “Percentage (%) cleaved molecule” value ([3]; B16-wt, Tumor (n = 4)) was 0%, the “Percentage (%) cleaved molecule” value ([3]; C57/B16-wt, Kidney (n = 9)) was 2% and the “Percentage (%) cleaved molecule” value ([3]; C57/B16-wt, Liver (n = 9)) was 2%. For the same molecule, the “Percentage (%) cleaved molecule” value ([3]; C57/B16-wt, Plasma (n = 2)) was 19%, the “Percentage (%) cleaved molecule” value ([3]; C57/B16-wt, Spleen (n = 9)) was 3% and the “Percentage (%) cleaved molecule” value ([3]; MB49-wt, Kidney (n = 6)) was 5%. For the same molecule, the “Percentage (%) cleaved molecule” value ([3]; MB49-wt, Liver (n = 6)) was 1%, the “Percentage (%) cleaved molecule” value ([3]; MB49-wt, Plasma (n = 1)) was 4% and the “Percentage (%) cleaved molecule” value ([3]; MB49-wt, Spleen (n = 6)) was 1%. For the same molecule, the “Percentage (%) cleaved molecule” value ([3]; MB49-wt, Tumor (n = 6)) was 2%, the “Percentage (%) cleaved molecule” value ([3]; MC38-hCTLA4, Kidney (n = 5)) was 5% and the “Percentage (%) cleaved molecule” value ([3]; MC38-hCTLA4, Liver (n = 5)) was 2%. The “Percentage (%) cleaved molecule” value ([3]; MC38-hCTLA4, Plasma (n = 1)) was 0%, the “Percentage (%) cleaved molecule” value ([3]; MC38-hCTLA4, Tumor (n = 5)) was 7% and the “Percentage (%) cleaved molecule” value ([3]; MC38-wt, Kidney (n = 9)) was 3%. For the same molecule, the “Percentage (%) cleaved molecule” value ([3]; MC38-wt, Liver (n = 9)) was 5%, the “Percentage (%) cleaved molecule” value ([3]; MC38-wt, Plasma (n = 1)) was 0% and the “Percentage (%) cleaved molecule” value ([3]; MC38-wt, Spleen (n = 9)) was 0%. The “Percentage (%) cleaved molecule” value ([3]; MC38-wt, Tumor (n = 9)) was 4%, the “Percentage (%) cleaved molecule” value ([3]; MCA205-wt, Kidney (n = 4)) was 0% and the “Percentage (%) cleaved molecule” value ([3]; MCA205-wt, Liver (n = 4)) was 0%. For the same molecule, the “Percentage (%) cleaved molecule” value ([3]; MCA205-wt, Plasma (n = 1)) was 0%, the “Percentage (%) cleaved molecule” value ([3]; MCA205-wt, Spleen (n = 4)) was 2% and the “Percentage (%) cleaved molecule” value ([3]; MCA205-wt, Tumor (n = 4)) was 0%. For the same molecule, the Frequency of cleavage ([3]; kidney conditioned media of B16-wt) was 100%, the Frequency of cleavage ([3]; kidney conditioned media of MB49-wt) was 17% and the Frequency of cleavage ([3]; kidney conditioned media of MC38-hCTLA4) was 80%. The Frequency of cleavage ([3]; kidney conditioned media of MC38-wt) was 67%, the Frequency of cleavage ([3]; tumor conditioned media of MB49-wt) was 17% and the Frequency of cleavage ([3]; tumor conditioned media of MC38-hCTLA4) was 40%. The Frequency of cleavage ([3]; tumor conditioned media of MC38-wt) was 100% and the “peripheral PD effects, percentage (%) of Ki67+ cells in CD4+ cells” value [4] was “reduced PD effects as compared to the unmasked parental Antibody 2-6”.
